# From PubChem BioAssay (NCATS)
# “And” between values parts separate entries of the source, which are not always exact repeats. Equal values may be shown once. The shares of active, inactive and inconclusive entries below differ from those in the screen. For some assays here: Potencies beside an inconclusive call are fits to weak or partial responses and may not hold up. The source made the active and inactive calls. Unless noted, calls follow the shape of the dose curve; as a rule, active = well fitted curve in the direction sought with a large enough effect; inconclusive = small, poorly fitted or top-dose-only effect, or another doubt; inactive = no such curve, though single readings can be large; an effect the other way counts as inactive or inconclusive.
# Tests used:
# [1] = NFAT Signaling Pathway (AID 444; active = well fitted curve in either direction with a large enough effect, not every such curve was filed as active; inconclusive = small, poorly fitted or top-dose-only effect, or another doubt;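 also: carbachol stimulus at about its EC50 of 1 µM final; % is scaled to controls: 0 for no effect and ±100 for the full control effect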); conditions: Jurkat NFAT-bla M1, carbachol, beta-lactamase ratio, 5 h; at 38 µM (top of the series)
# Method in brief: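 Jurkat cells carrying an NFAT-driven β-lactamase reporter and co-transfected muscarinic M1 receptor were treated with compound plus carbachol (1 uM final, an EC50 level) for 5 h at 37 °C. CCF4 loading followed for 1 h at RT; 460/530 nm ratio gave %activity.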
# [2] = biological target: 3',5'-cyclic-AMP phosphodiesterase 4B (Homo sapiens) (UniProt Q07343); assay: qHTS Assay for Inhibitors of PDE-IV (AID 607; active = well fitted activation curve with a large enough effect in the main read-out, with a control signal flat, not every such curve was filed as active; inconclusive = small, poorly fitted or top-dose-only effect, or effect the other way, or a change in a side signal; also: potency is read from the fitted curve at half-maximal effect; as to activation (PDE inhibition): % of control where 0% means no effect); conditions: HEK293 ACTOne CNG channel cells, membrane potential fluorescence; activation (PDE inhibition): at 22.9 µM (top of the series)
# Chain of UniProt Q07343 (Q07343 whole entry, looked up): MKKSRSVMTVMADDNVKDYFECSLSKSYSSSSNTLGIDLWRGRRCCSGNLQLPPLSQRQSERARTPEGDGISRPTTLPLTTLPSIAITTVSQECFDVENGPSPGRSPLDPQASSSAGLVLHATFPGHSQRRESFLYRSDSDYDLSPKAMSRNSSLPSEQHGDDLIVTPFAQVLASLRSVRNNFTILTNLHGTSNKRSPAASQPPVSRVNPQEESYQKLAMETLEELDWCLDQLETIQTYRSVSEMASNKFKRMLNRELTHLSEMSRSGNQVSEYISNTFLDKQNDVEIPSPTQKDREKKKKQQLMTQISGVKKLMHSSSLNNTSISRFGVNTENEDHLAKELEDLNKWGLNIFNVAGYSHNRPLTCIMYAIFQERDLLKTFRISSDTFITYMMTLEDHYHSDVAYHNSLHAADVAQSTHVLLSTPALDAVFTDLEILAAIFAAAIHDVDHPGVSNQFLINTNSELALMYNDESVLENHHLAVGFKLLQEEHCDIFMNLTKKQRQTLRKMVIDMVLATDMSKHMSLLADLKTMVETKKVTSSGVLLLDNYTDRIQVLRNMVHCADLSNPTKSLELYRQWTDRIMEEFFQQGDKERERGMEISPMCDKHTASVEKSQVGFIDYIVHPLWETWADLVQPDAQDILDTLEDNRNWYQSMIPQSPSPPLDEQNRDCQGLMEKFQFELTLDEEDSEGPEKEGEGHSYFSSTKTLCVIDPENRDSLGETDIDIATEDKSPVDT
# Method in brief: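 The readout is membrane depolarisation from a cAMP-sensing CNG channel, detected with a potential dye at ex 535/em 590. Cells were HEK293-derived (endogenous PDE-IV) at 1000 cells/well, titrated up to 22.9 uM final.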
# [3] = biological target: Cytochrome P450 3A4 (Homo sapiens) (UniProt P08684); assay: qHTS Assay for Activators of Cytochrome P450 3A4 (AID 885); also: potency is read from the fitted curve at half-maximal effect; nearly all actives have a fitted effect of over 65% in size
# Chain of UniProt P08684 (P08684 whole entry, looked up): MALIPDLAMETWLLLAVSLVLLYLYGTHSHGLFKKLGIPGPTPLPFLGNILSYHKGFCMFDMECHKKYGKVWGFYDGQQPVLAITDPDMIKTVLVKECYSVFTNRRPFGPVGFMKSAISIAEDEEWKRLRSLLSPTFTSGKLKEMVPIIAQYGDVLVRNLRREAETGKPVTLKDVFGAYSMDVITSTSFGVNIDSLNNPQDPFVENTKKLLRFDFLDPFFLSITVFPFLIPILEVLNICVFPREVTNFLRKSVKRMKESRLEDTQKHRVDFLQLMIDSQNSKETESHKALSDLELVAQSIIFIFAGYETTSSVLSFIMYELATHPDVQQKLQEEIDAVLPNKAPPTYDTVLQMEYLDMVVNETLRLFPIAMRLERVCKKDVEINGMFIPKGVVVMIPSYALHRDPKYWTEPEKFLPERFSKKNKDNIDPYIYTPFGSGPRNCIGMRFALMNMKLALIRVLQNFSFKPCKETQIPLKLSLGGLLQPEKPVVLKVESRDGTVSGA
# Method in brief: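 Activators are scored by enhanced luminescence from CYP3A4 conversion of luciferin-PPXE (25uM, equal to KM) to luciferin, after 60 min at RT with an NADPH-regenerating system.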
# [4] = qHTS Assay for Identification of Small Molecule Antagonists for NFkB Signaling Pathway (AID 895; active = well fitted inhibition curve with a large enough effect in the signal ratio, with a control signal flat, not every such curve was filed as active; inconclusive = small, poorly fitted or top-dose-only effect, or effect the other way, or a change in a side signal; the % refers to the signal ratio; also: potency is read from the fitted curve at half-maximal effect); conditions: NFkB beta-lactamase reporter cells, FRET ratio 460/530, stimulated with 10 pM TNF alpha; activity change, negative = inhibition: at 38.3 µM (top of the series)
# Method in brief: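 NFkB-bla ME-180 cervical carcinoma cells with beta-lactamase reporter under NFkB response element; compounds added, then TNF alpha at 10 pM final (EC50), 5 h at 37 C. LiveBLAzer substrate 2 h, room temperature; emission 460/530 nm at 405 nm excitation.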
# [5] = qHTS Assay for Identification of Small Molecule Agonists for Hypoxia Response Element Signaling Pathway (AID 914; active = well fitted activation curve with a large enough effect in the signal ratio, with a control signal flat, not every such curve was filed as active; inconclusive = small, poorly fitted or top-dose-only effect, or effect the other way, or a change in a side signal; the % refers to the signal ratio; also: top concentration of the series differs between compounds; % of control where 0% means no effect); conditions: ME-180 (cervical carcinoma) HRE-bla reporter, beta-lactamase ratio, CoCl2, 17 h; activation: stronger effect = higher value
# Method in brief: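 A beta-lactamase reporter under hypoxia response element control in ME-180 cells served as the system. Compound titrations plus EC50 CoCl2 ran 17 h at 37 degrees Celsius; AC50 values were fitted from %Activity.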
# [6] = qHTS Assay for Identification of Small Molecule Agonists for Thrombopoietin (TPO) Signaling Pathway (AID 917); also: potency is read from the fitted curve at half-maximal effect
# Method in brief: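 Human TPO receptor–transfected Ba/F3 cells (murine, IL-3-dependent) in IL-3-deficient medium; compounds plus TPO at EC50, 26 pM final; 24 hrs, 37 C; GpIIb-luciferase luminescence after 10 min RT detection.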
# [7] = qHTS Assay for Identification of Small Molecule Antagonists for Thrombopoietin (TPO) Signaling Pathway (AID 918); conditions: TPO-dependent cell signaling reporter, antagonist mode; activity change, negative = inhibition: at 38.5 µM (top of the series); also: potency is read from the fitted curve at half-maximal effect; nearly all actives have a fitted effect of over 60% in size
# Method in brief: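 Antagonist mode at EC50 TPO (26 pM) in IL-3-free medium; murine Ba/F3 cells with human TPO receptor and GPIIb-promoter luciferase, 24 hrs at 37 C before luminescent detection.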
# [8] = biological target: Muscarinic acetylcholine receptor M1 (Rattus norvegicus) (UniProt P08482); assay: qHTS Assay for Antagonists of Acetylcholine Muscarinic M1 Receptor: Kinetic Measurement of Intracellular Calcium Response (AID 943); also: potency is read from the fitted curve at half-maximal effect; nearly all actives have a fitted effect of over 75% in size
# Chain of UniProt P08482 (P08482 whole entry, looked up): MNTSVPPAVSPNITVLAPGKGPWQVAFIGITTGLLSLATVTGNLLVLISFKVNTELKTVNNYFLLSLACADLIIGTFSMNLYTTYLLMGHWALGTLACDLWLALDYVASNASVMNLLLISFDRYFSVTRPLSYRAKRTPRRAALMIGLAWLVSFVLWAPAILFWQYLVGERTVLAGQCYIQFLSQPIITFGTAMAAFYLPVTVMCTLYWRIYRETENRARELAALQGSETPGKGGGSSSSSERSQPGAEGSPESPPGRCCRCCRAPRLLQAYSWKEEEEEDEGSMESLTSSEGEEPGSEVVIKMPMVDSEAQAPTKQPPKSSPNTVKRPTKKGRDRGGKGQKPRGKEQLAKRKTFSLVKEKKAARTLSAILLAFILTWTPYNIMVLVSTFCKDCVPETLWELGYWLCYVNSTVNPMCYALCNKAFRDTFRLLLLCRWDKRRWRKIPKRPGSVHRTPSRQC
# Method in brief: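 Quantitative HTS in CHO-M1 (rat receptor) cells: 10 min compound exposure ahead of 100 nM carbachol, Fluo-4 fluorescence followed 4 min, value expressed as peak-to-basal ratio.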
# [9] = biological target: Muscarinic acetylcholine receptor M1 (Rattus norvegicus) (UniProt P08482); assay: qHTS Assay for Antagonists of Acetylcholine Muscarinic M1 Receptor: Measurement of IP-One Response (AID 944); also: potency is read from the fitted curve at half-maximal effect; nearly all actives have a fitted effect of over 75% in size
# [10] = qHTS Assay for Lipid Storage Modulators (AID 1519; calls by dose curve; also: % is scaled to controls: 0 for no effect and ±100 for the full control effect); conditions: Drosophila S3 cells, BODIPY lipid droplet/cell ratio, laser cytometry, cells loaded with oleic acid; activity change, negative = inhibition: at 57.5 µM (top of the series) unless noted
# Method in brief: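 Cells seeded at 5,000 per well were treated with compounds over a concentration series and loaded with oleic acid (400 uM, as added). Lipid droplet fluorescence (488 nm excitation, 500-530 nm channel) was read by laser-scanning cytometry and normalized to 20 uM Triacsin C.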
# [11] = qHTS for differential inhibitors of proliferation of Plasmodium falciparum line 3D7 (AID 1876); also: potency is read from the fitted curve at half-maximal effect
# [12] = qHTS for differential inhibitors of proliferation of Plasmodium falciparum line D10 (AID 1877);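 also: potency is read from the fitted curve at half-maximal effect; parasites grown with compound for 72 h before DNA staining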
# [13] = biological target: RecQ-like DNA helicase BLM (Homo sapiens) (UniProt P54132); assay: qHTS Validation Assay for Inhibitors of Bloom's syndrome helicase (BLM) (AID 2364);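 also: plate controls were DMSO vehicle for no effect and enzyme-free control for full effect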
# Method in brief: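 BLM 50 nM in 25 mM Tris-HCl pH 8.0, 5 mM NaCl, 2 mM MgCl2, 1 mM DTT, 0.01% Tween-20, 2.5 ug/ml poly(dI-dC); 15 min cpd preinc, RT. Start: 200 nM forked DNA + 2 mM ATP (final). TAMRA read, 2 reads 2 h apart.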
# [14] = Cytometric Cell-Based qHTS for Inhibitors of the mTORC1 Signaling Pathway in MEF (Tsc2-/-, p53-/-) Cells (AID 2660); also: potency is read from the fitted curve at half-maximal effect
# Method in brief: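 Cells are plated, treated with compound for 24 hrs at 37 degree Celsius, then fixed, blocked and immunostained for phospho-rpS6 Ser235/236. Propidium iodide counterstain follows. Per-well % positive cells is derived from the PI-normalized phospho-S6 signal.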
# [15] = Cytometry Cell-Based qHTS for Inhibitors of the mTORC1 Signaling Pathway in MEF cells (AID 2668); also: potency is read from the fitted curve at half-maximal effect
# Method in brief: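 In MEFs grown in DMEM + 10% FBS, a 24 hrs compound exposure preceded imaging of phospho-rpS6 Ser235/236 by laser-scanning cytometry.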
# [16] = Validation screen for small molecules that induce DNA re-replication in MCF 10A normal breast cells (AID 463097); also: potency is read from the fitted curve at half-maximal effect; nearly all actives have a fitted effect of over 60% in size
# Method in brief: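 Following 48 hr compound incubation (37 C, 5% CO2), MCF 10A cells receive Hoechst for 40 min at 37 C. Nuclei are then scanned (excitation 405 nm, emission 500-530 nm) for total fluorescence intensity.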
# [17] = biological target: ATP-dependent 6-phosphofructokinase (Trypanosoma brucei brucei) (UniProt O15648); assay: qHTS Validation Assay to Find Inhibitors of T. brucei phosphofructokinase (AID 485368); conditions: activity change, negative = inhibition: at 57.5 µM (top of the series); also: potency is read from the fitted curve at half-maximal effect
# Chain of UniProt O15648 (O15648 whole entry, looked up): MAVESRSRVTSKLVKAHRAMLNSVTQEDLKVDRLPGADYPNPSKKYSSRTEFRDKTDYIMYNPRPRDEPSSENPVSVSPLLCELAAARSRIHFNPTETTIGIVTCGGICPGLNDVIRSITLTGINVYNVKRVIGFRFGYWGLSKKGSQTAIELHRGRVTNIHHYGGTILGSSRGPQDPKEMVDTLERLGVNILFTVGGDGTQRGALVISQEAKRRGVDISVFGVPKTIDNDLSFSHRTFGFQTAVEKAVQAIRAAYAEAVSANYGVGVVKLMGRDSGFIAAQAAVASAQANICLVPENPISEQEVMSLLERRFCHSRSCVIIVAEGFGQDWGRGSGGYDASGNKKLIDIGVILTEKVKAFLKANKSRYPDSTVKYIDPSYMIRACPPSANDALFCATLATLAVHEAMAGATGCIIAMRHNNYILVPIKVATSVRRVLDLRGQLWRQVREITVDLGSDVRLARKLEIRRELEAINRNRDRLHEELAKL
# Method in brief: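 qHTS format, up to 57 uM. PFK 1.25 nM; F6P 0.5 mM; ATP 0.1 mM; 5 mM MgCl2, 0.01% Tween20, 0.1% BSA; 0.1 M TEA pH 8.0; 45 min RT; ADP-Glo readout; no-enzyme control = full inhibition.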
# [18] = Quantitative high throughput screen for delayed death inhibitors of the malarial parasite plastid, 96 hour incubation (AID 488745); also: potency is read from the fitted curve at half-maximal effect; nearly all actives have a fitted effect of over 70% in size
# Method in brief: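 Two-generation (96 h) exposure of luciferase-reporter P. falciparum in erythrocytes, 2% hematocrit, 0.1% parasitemia final, 37 C, 5% CO2, RPMI 1640 with 0.5% Albumax. Growth inhibition scored by reduced luminescence.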
# [19] = biological target: ATPase family AAA domain-containing protein 5 (Homo sapiens) (UniProt Q96QE3); assay: Validation screen for small molecules that inhibit ELG1-dependent DNA repair in human embryonic kidney (HEK293T) cells expressing luciferase-tagged ELG1 (AID 493107); conditions: HEK293T ELG1-luciferase level, luminescence, 5-fluorouridine co-treatment, 16 h; activity change, negative = decrease: at 46.1 µM (top of the series); also: potency is read from the fitted curve at half-maximal effect; nearly all actives have a fitted effect of over 70% in size
# Method in brief: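 Compounds reducing 5-fluorouridine-driven ELG1-luciferase signal in HEK293T cells were scored; exposure lasted 16 hr at 37 °C with luminescence detected via ONE-Glo.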
# [20] = Nrf2 qHTS screen for inhibitors: Validation (AID 493153; active = well fitted inhibition curve with a large enough effect in the main read-out, with a control signal flat, not every such curve was filed as active; inconclusive = small, poorly fitted or top-dose-only effect, or effect the other way, or a change in a side signal; inactive = no such curve, though single readings can be large or run the other way;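 also: A549 cells with ARE-driven firefly luciferase reporter reporting Nrf2 activity; % of control where 0% means no effect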)
# Method in brief: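 In this counterscreened reporter format, each well gives two signals: CellTiter-Fluor fluorescence for cytotoxicity and ARE-luciferase luminescence for Nrf2 function. A549 ARE_Fluc cells in 5% FBS OPTI-MEM were exposed to compound titrations for 18-24 h.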
# [21] = qHTS for Inhibitors of Cell Surface uPA Generation: Validation Assay (AID 493164); also: potency is read from the fitted curve at half-maximal effect
# Method in brief: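 Compounds are titrated over seven points (2.45 nM–38.3 uM final) onto pre-plated RAW 264.7 cells and incubated for 18 h. Retained intracellular ATP, measured with ATP-Lite, indicates blocked lethal factor entry.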
# [22] = qHTS for Inhibitors of ATXN expression: Validation of Cytotoxic Assay (AID 588349); also: potency is read from the fitted curve at half-maximal effect
# Method in brief: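 Toxicity of test compounds toward HEK293 cells is scored from cellular ATP content measured by CellTiter Glo. Cells receive titrated doses and incubate 72 hr at 37 degrees C beforehand.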
# [23] = qHTS for Inhibitors of ATXN expression: Validation (AID 588378); also: potency is read from the fitted curve at half-maximal effect; nearly all actives have a fitted effect of over 75% in size
# Method in brief: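 After a 2 h attachment and 24 h compound incubation, HEK293-ATXN2-FFLuc wells are read for fluorescence at 405 nm excitation/525 nm emission as a viability measure, then for Bright-Glo luminescence reflecting ATXN2 expression.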
# [24] = biological target: DNA dC->dU-editing enzyme APOBEC-3G (Homo sapiens) (UniProt Q9HC16); assay: qHTS for inhibitors of Vif-A3G interactions: Validation (AID 588379); also: potency is read from the fitted curve at half-maximal effect
# Chain of UniProt Q9HC16 (Q9HC16 whole entry, looked up): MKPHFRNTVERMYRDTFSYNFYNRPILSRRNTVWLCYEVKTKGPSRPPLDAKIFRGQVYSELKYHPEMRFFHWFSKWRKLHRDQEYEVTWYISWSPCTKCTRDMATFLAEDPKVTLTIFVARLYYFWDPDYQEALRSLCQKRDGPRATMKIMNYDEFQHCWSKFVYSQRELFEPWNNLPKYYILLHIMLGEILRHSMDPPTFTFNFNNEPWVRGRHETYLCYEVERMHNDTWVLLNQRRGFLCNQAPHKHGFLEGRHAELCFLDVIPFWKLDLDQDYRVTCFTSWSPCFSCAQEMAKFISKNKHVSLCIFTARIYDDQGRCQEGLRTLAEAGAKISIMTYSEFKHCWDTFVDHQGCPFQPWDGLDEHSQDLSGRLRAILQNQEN
# Method in brief: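 Yellow fluorescence (Ex 488, Em 500-530) of Vif-coexpressing HeLa A3G-eYFP cells, scanned by Acumen cytometer, reports blocked A3G degradation. Cells plated at 700/well overnight at 37 deg C before compound addition, then a further overnight compound incubation at 37 deg C.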
# [25] = biological target: Voltage-gated inwardly rectifying potassium channel KCNH2 (Homo sapiens) (UniProt Q12809); assay: qHTS Assay for Small Molecule Inhibitors of the Human hERG Channel Activity (AID 588834);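 also: potency is read from the fitted curve at half-maximal effect; lower thallium flux fluorescence means stronger hERG block; nearly all actives have a fitted effect of over 50% in size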
# Chain of UniProt Q12809 (Q12809 whole entry, looked up): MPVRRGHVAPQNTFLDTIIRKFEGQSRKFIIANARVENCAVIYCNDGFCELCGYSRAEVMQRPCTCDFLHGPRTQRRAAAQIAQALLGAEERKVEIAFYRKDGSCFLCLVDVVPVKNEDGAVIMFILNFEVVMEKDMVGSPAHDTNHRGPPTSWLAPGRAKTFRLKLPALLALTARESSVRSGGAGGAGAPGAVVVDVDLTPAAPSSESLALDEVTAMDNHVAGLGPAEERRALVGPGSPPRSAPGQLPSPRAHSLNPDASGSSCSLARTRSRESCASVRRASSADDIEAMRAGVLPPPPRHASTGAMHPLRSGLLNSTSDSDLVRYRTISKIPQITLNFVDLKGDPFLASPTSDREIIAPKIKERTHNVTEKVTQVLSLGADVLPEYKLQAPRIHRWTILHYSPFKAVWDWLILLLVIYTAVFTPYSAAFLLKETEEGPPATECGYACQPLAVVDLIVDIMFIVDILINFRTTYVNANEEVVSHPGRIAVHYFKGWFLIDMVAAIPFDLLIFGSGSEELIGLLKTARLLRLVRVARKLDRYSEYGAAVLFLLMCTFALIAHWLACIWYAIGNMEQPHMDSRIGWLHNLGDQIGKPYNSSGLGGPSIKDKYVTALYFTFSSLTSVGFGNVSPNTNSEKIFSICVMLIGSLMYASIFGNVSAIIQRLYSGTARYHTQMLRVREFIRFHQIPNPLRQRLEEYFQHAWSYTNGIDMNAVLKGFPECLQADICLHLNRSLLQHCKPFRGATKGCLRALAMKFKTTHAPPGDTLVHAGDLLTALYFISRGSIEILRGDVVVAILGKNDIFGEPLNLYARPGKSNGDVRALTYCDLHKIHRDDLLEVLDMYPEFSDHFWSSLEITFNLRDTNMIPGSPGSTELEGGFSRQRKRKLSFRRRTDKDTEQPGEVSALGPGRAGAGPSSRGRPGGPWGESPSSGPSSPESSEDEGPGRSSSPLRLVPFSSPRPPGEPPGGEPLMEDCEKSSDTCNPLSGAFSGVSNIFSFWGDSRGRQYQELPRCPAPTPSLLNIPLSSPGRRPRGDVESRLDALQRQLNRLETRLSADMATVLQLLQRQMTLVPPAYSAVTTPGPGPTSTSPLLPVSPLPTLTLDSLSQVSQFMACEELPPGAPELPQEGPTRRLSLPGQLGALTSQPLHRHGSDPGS
# Method in brief: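 Homogeneous FluxOR thallium flux assay using hERG-expressing U2OS cells (BacMam). Compound treatment about 10 minutes preceded stimulation; reduced fluorescence taken as channel block.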
# [26] = qHTS for Activators of Parkin Expression: LOPAC Validation Assay (NLuc Reporter) (AID 720572; also: potency is read from the fitted curve at half-maximal effect)
# Method in brief: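 Cells harboring the Parkin-promoter coincidence reporter were treated for 24 h at seven concentrations. NLuc output was measured sequentially after the FLuc channel and scaled between DMSO and positive control values.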
# [27] = biological target: Tyrosine-protein phosphatase non-receptor type substrate 1 (Homo sapiens) + Leukocyte surface antigen CD47 (Homo sapiens) (UniProt P78324+Q08722); assay: CD47-SIRPalpha protein protein interaction - Alpha assay qHTS validation (AID 1347059)
# Chain of UniProt P78324 (P78324 whole entry, looked up, the tested form may be a part): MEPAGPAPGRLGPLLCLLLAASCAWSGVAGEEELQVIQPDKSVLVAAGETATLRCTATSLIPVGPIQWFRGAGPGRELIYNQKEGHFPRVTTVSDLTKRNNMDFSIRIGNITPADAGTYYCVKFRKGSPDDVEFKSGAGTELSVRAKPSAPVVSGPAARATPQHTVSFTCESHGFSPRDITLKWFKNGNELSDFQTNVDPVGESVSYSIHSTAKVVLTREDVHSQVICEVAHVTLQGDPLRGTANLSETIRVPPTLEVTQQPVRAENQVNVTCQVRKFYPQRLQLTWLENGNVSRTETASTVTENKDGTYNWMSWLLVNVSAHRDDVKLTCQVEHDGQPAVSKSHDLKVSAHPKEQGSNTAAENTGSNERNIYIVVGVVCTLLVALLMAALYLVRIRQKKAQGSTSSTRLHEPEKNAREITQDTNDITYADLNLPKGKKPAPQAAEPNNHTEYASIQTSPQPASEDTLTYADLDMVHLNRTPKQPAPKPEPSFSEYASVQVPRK
# Chain of UniProt P78324 (Q08722 whole entry, looked up, the tested form may be a part): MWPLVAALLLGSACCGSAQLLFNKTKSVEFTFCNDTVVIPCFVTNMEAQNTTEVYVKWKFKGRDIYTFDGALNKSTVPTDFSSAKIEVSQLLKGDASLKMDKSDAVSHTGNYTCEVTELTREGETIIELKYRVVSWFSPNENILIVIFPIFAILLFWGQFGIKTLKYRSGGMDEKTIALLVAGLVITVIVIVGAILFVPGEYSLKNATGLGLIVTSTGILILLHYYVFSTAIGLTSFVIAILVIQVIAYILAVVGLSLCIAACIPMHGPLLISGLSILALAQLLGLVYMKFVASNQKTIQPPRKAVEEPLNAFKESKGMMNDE
# Method in brief: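 In PBS (pH 7.4) with 0.05% IGEPAL CA-630, compound is preincubated with biotin-Avi-SIRPalpha ectodomain before His-CD47 ectodomain and affinity beads are added. Light-protected room-temperature incubations; AlphaScreen readout.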
# [28] = qHTS to identify inhibitors of the type 1 interferon - major histocompatibility complex class I in skeletal muscle: primary screen against the NCATS LOPAC collection (AID 1347405); conditions: iHSKM muscle cells, IFN-b-induced MHC-I HiBiT luminescence, 24 h; activity change, negative = inhibition: at 45.9 µM (top of the series)
# Method in brief: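 IFN-beta-stimulated (4 ng/ml) HLA-B HiBiT knock-in myoblasts, compound-treated 24 hrs up to 46 uM final; signal via LgBiT complementation and furimazine luminescence.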
# [29] = biological target: Calcium and integrin-binding protein 1 (Homo sapiens) (UniProt Q99828); assay: Validation qHTS for Identification of Calcium Integrin Binding protein 1 (CIB1) Competitor (AID 1508618); also: potency is read from the fitted curve at half-maximal effect
# Chain of UniProt Q99828 (Q99828 whole entry, looked up): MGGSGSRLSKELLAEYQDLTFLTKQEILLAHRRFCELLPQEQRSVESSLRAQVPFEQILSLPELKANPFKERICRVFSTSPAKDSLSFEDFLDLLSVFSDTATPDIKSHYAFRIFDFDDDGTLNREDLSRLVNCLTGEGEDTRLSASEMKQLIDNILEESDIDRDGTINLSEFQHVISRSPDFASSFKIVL
# Method in brief: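 Displacement of FITC-alphaIIb peptide (100 nM) from CIB1-GST (1 uM) is monitored by polarization in quantitative HTS format; buffer carries 5 mM CaCl2 and 125 mM NaCl at pH 7.4, incubations are at room temperature.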
# Tags tell the direction and shape of the fitted curve or compound fluorescence and quenching.
compound,measurement,setting,value
COc1ccc(NC(=O)c2ccc(-c3ccc(-c4noc(C)n4)cc3C)cc2)cc1N1CCN(C)CC1,"activity change, negative = inhibition",[1],inconclusive: -106% [inhibitor]
same,Potency,[2],"inactive and inconclusive: 19 µM [activator, single point]"
same,Potency,[3],"inconclusive: 0.794 µM [activator, full curve, poor fit]"
same,Potency,[4],"inconclusive: 0.141 µM [activator, full curve, poor fit]"
same,activation,[5],inconclusive: -50.6%
same,Potency,[6],"inconclusive: 10 µM [inhibitor, partial curve]"
same,Potency,[7],active: 10 µM
same,Potency,[8],"inconclusive: 14.1 µM [inhibitor, partial curve, poor fit]"
same,Potency,[9],"inconclusive: 31.6 µM [inhibitor, partial curve, poor fit]"
same,"activity change, negative = inhibition",[10],inconclusive: -42.4%
same,Potency,[11],active: 2.82 µM
same,Potency,[12],active: 2.51 µM
same,Potency,[13],inactive
same,Potency,[14],"inconclusive: 16.5 µM [falling, single point]"
same,Potency,[15],active: 5.85 µM
same,Potency,[16],active: 12.6 µM
same,Potency,[17],"inconclusive: 0.0048 µM [falling, full curve, poor fit]"
same,Potency,[18],active: 4.65 µM
same,Potency,[19],active: 20.6 µM
same,Potency,[20],inactive
same,Potency,[21],"inconclusive: 14.7 µM [inhibitor, partial curve, poor fit]"
same,Potency,[22],"inconclusive: 39.8 µM [cytotoxic, single point]"
same,Potency,[23],active: 22.4 µM
same,Potency,[24],"inconclusive: 33.5 µM [inhibitor, partial curve, poor fit]"
same,Potency,[25],active: 3.55 µM
same,Potency,[26],active: 20.6 µM
same,Potency,[27],"inconclusive: 9.27 µM [inhibitor, partial curve]"
same,Potency,[28],active: 25.1 µM
same,Potency,[29],"inconclusive: 17.8 µM [inhibitor, partial curve]"
